We go through 40 compounds from PubChem BioAssay AID743255 (National Center for Advancing Translational Sciences (NCATS), 2014).

About 910 (0.23%) of roughly 390,000 compounds were called active. Not shown: some 5% with an inconclusive outcome. Calls come from the whole dose curve; as a rule, active = well fitted inhibition curve with a large enough effect; inconclusive = small, poorly fitted or top-dose-only effect; inactive = no such curve, though single readings can be large or run the other way. The list shows a part of the results, in another mix than the full data.
% is set by controls: 0 for no effect and ±100 for the full control effect; potency is the fitted concentration of half-maximal effect.

Chain of UniProt O94782 (O94782 whole entry, looked up): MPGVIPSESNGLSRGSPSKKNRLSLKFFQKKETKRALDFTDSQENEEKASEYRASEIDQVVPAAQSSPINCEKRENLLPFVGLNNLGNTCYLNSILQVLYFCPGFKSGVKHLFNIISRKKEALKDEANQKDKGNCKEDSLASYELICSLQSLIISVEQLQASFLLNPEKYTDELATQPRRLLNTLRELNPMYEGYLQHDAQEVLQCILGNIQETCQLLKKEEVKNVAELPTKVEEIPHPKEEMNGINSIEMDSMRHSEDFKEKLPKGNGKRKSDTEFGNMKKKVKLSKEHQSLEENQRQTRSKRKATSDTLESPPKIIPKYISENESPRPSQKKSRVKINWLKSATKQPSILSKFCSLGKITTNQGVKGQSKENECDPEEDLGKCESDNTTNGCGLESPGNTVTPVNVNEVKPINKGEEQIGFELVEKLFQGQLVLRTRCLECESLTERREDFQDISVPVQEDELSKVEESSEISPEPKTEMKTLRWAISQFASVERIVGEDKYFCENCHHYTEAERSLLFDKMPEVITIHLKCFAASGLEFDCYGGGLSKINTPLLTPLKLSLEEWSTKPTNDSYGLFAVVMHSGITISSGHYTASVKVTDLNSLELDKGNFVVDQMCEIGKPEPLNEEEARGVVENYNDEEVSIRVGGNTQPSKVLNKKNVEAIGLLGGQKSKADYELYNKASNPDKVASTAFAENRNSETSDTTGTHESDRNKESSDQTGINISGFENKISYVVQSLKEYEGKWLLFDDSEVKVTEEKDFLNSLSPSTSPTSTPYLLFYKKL

This test concerns the target Ubiquitin carboxyl-terminal hydrolase 1 (Homo sapiens) (UniProt O94782). Briefly: Inhibitors of USP1/UAF1: Primary Screen. Note: nearly all actives have a fitted effect of over 60% in size. Conditions: recombinant USP1/UAF1, Ub-Rhodamine cleavage fluorescence; activity change, negative = inhibition: at 57.1 µM (top of the series). The text has this:
Deubiquitinating enzymes (DUBs) are a class of enzymes that can cleave isopeptide bond formed between the C-terminal carboxylate of ubiquitin and a lysine side-chain amino group on the target protein. Among them, ubiquitin specific proteases (USPs) constitute the largest DUB family. Human USPs are emerging as promising targets for pharmacological intervention because of their connection to a number of human diseases, including prostate, colon and breast cancer (1, 2), pediatric acute lymphoblastic leukemia (3), and familial cylindromatosis (4). The advantage of inhibiting USPs lies in the potential specificity of therapeutic intervention that can lead to better efficacy and reduce nonspecific side effects. In a collaboration between the University of Delaware and the NIH Chemical Genomics Center, a high-throughput screen assay was developed to screen for USP1/UAF1 inhibitors. This miniaturized assay has a fluorescent read-out and is used to screen the NIH Molecular Libraries Small Molecule Repository (MLSMR) in order to identify a small molecule that inhibits USP1. NIH Chemical Genomics Center [NCGC] NIH Molecular Libraries Probe Centers Network [MLPCN] MLPCN Grant: DA030552 Assay Submitter (PI): Zhihao Zhuang, University of Delaware 1. Priolo, C., et al. (2006) The isopeptidase USP2a protects human prostate cancer from apoptosis. Cancer Res 66, 8625-8632 2. Popov, N., et al. (2007) The ubiquitin-specific protease USP28 is required for MYC stability. Nat Cell Biol 9, 765-774 3. De Pitta, C., et al. (2005) A leukemia-enriched cDNA microarray platform identifies new transcripts with relevance to the biology of pediatric acute lymphoblastic leukemia. Haematologica 90, 890-898 4. Kovalenko, A., et al. (2003) The tumour suppressor CYLD negatively regulates NF-kappaB signalling by deubiquitination. Nature 424, 801-805
3 microliters of reagents (buffer in columns 3 and 4 as negative control and 1nM USP1/UAF1 complex in columns 1, 2, and 5-48) are dispensed into Greiner black solid bottom 1536-well assay plates. Compounds are then transferred via Kalypsys pin tool equipped with 1536-pin array (10nl slotted pins, V&P Scientific, San Diego, CA). Following an incubation step of 15 min at room temperature, 1ul of Ub-Rho substrate (150nM final concentration) is added to initiate the reaction. The plates are immediately centrifuged at 1000 rpm for 15 seconds, and subsequently transferred to a ViewLux high-throughput CCD imager (PerkinElmer) wherein kinetic measurements of fluorescence are acquired using 480 nm excitation/540 nm emission filter set (6 reads every 60 seconds, see Table 1). All reagents are diluted in an assay buffer consisting of 50mM HEPES (pH 7.8), 0.5mM EDTA, 0.1 mg/ml BSA, 1mM TCEP, and 0.01% Tween-20.
Turning to `C=CC[C@@H](Cc1ccc(F)cc1)C(=O)OC[C@H]1CCCN1C(=O)[C@H](CC=C)CC(=O)N[C@H](CO)Cc1ccccc1`, the “activity change, negative = inhibition” value is inactive: -15.9%.
Turning to `O=c1[nH]c(Nc2ccc(F)cc2)cc2ccccc12`, the Potency is active: 12.6 µM.
`C=CCC[C@H](Cc1ccc(F)cc1)C(=O)OC[C@@H](C)NC(=O)[C@H](CC=C)CC(=O)NCCO`: the “activity change, negative = inhibition” value was inactive: 19.7%.
Still for that read-out and setting: under `C[C@H](CO)N1C[C@H](C)[C@@H](CN(C)C(=O)Nc2ccccc2)Oc2ccc(NC(=O)c3ccncc3)cc2C1=O` stands inactive: -10.2%.
As for `C=CC[C@@H](CC(=O)OC(C)(C)C)C(=O)OC[C@@H]1CCCN1C(=O)[C@@H](CC=C)CC(=O)N[C@@H](CO)Cc1ccccc1`, the “activity change, negative = inhibition” value was inactive: -22.6%.
Same read-out and setting: to `CCCCN(C)C(=O)C(Cc1ccccc1)NS(=O)(=O)c1ccc2c(c1)c(=O)n(C)c(=O)n2C` (stereo not given) belongs inactive: -6.09%; to `CCOC(=O)[C@@H]1[C@H]2COc3ccc(Br)cc3[C@H]2N2C(=O)N(c3ccc(Br)cc3)C(=O)[C@]12C`, inactive: 4.06%.
On the same count and under the same terms, under `C[C@@H]1CN([C@H](C)CO)S(=O)(=O)c2ccc(Br)cc2O[C@@H]1CN(C)C(=O)Nc1ccc(C(F)(F)F)cc1` stands inactive: -20.1%; under `CCN(CC)CCNC(=O)c1cn(CC)c2ccc(S(=O)(=O)N3CCc4ccccc4C3)cc2c1=O`, inactive: -7.76%.
As to `COc1ccc(/C=C2\C(=O)NC(=O)c3ccccc32)cc1OC`, the Potency is active: 1.78 µM.
For `Cc1ccc(-c2nn(CCC(N)=O)c(=O)c3ccccc23)cc1`, the “activity change, negative = inhibition” value is inactive: -21.9%.
As for `Nc1c(C(=O)NCC2CCCO2)sc2nc3c(c(-c4ccco4)c12)CC/C3=C\c1ccco1` (stereo not given), the Potency is active: 28.2 µM.
Consider `COc1cc(NCCCCCCN)c2ncccc2c1OC`, for which the Potency was active: 8.91 µM.
On to `CCOc1cc(CNc2ccc(O)cc2)cc(Cl)c1OCc1ccccc1`, for which the Potency is active: 28.2 µM.
For `C[C@H](CO)N1C[C@H](C)[C@@H](CN(C)C(=O)c2ccc3ccn(C)c3c2)OCc2cn(nn2)CCCC1=O`, the “activity change, negative = inhibition” value was inactive: -26.4%.
Consider `COc1cc(CCNC2=CC(=O)c3ncccc3C2=O)ccc1O`, for which the Potency is active: 17.8 µM.
Turning to `O=c1c(/C=N/Nc2ccccc2)c(Sc2nnnn2-c2ccccc2)nc2ccccn12`, the Potency is active: 3.16 µM.
As to `COc1ccc(N=C(N(C)C)P(=O)(N(C)C)N(C)C)cc1`, the “activity change, negative = inhibition” value was inactive: -5.61%.
Take `C=CCN1C=C2C(=O)C(C)(OC(=O)CCC(=O)OC)C(=O)C(Br)=C2C=C1c1ccc(OC)cc1` (stereo not given): the Potency was active: 31.6 µM.
As for `CCOCCCNC(=O)C(c1ccc(OC)cc1)N(Cc1cccs1)C(=O)CNC(C)=O` (stereo not given), the “activity change, negative = inhibition” value was inactive: -11.6%.
Same read-out and setting: under `C[C@H](CO)N1C[C@H](C)[C@H](CN(C)S(=O)(=O)c2ccccc2F)OCc2cnnn2CCCC1=O` stands inactive: -11.6%; under `C[C@H]1CCC[C@]2(O[C@H](CCO)C[C@H](O)[C@H]2O)O1`, inactive: -11.7%.
In the case of `COc1cccc(S(=O)(=O)N(C)C[C@@H]2Oc3cc(Br)ccc3S(=O)(=O)N([C@@H](C)CO)C[C@@H]2C)c1`, the “activity change, negative = inhibition” value was inactive: -15.2%.
With `C[C@H]1CN([C@@H](C)CO)C(=O)CCCn2nncc2CO[C@@H]1CN(C)C(=O)c1ccc2ccn(C)c2c1`, the “activity change, negative = inhibition” value was inactive: -15%.
Consider `CCOc1cc(C=C2C(=O)c3ccccc3C2=O)ccc1OCC(=O)Nc1ccc(C)cc1`, for which the “activity change, negative = inhibition” value is inactive: 230%.
Take `COc1ccc(OCC(=O)N(Cc2sccc2C)C2CCS(=O)(=O)C2)cc1` (stereo not given): the “activity change, negative = inhibition” value was inactive: -21.3%.
Same read-out and setting: to `CCOC(=O)[C@@H]1[C@H]2COc3cc(OC)ccc3[C@@H]2N2C(=O)N(c3ccc(Br)cc3)C(=O)[C@@]12C` belongs inactive: -23.5%.
Regarding `Cc1ccc2[nH]cc(/C=C/c3cc[n+](C)cc3)c2c1`, the Potency is active: 28.2 µM.
With `C#CCNC(=O)C1=C[C@@H](c2ccc3c(c2)OCO3)C[C@@H](OCCCCO)O1`, the “activity change, negative = inhibition” value was inactive: -26.8%.
Turning to `COC(=O)CN1C(=S)N(c2ccc(OC)cc2)C(=O)/C1=C/c1ccc(N2CCOCC2)cc1`, the Potency was active: 28.2 µM.
On to `C[C@@H]1CCC[C@]2(O[C@@H](CCO)C[C@@H](O)[C@@H]2O)O1`, for which the “activity change, negative = inhibition” value was inactive: -16.1%.
On the same count and under the same terms, to `COc1cccc(S(=O)(=O)N(C)C[C@H]2OCc3cnnn3CCCC(=O)N([C@@H](C)CO)C[C@@H]2C)c1` belongs inactive: -26%; to `O=C(CCN1C(=O)c2ccccc2S1(=O)=O)Nc1cc(Cl)ccc1Cl`, inactive: 3.39%.
The same measure, in the same setting: under `COc1cccc(CNC(=O)CNS(=O)(=O)c2ccc3nc(C)sc3c2)c1` stands inactive: 37.7%.
For the compound `O=C1[C@H](Cc2ccccc2)NCCCC[C@H](c2ccco2)N1Cc1ccccc1`, the “activity change, negative = inhibition” value was inactive: -0.728%.
Still for that read-out and setting: to `C=CC[C@H](CC(=O)N[C@H](CO)Cc1ccccc1)C(=O)N[C@H](COC(=O)[C@H](CC=C)CC(=O)OC(C)(C)C)Cc1c[nH]c2ccccc12` belongs inactive: -30.7%; to `O=C(O)CCn1cc(/C=C\C(=O)c2ccc(Cl)cc2)c(-c2cccc(Br)c2)n1`, inactive: -20.6%.
On to `O=C1c2ccccc2-c2onc3ccc(NCCCn4ccnc4)c1c23`, for which the Potency is active: 28.2 µM.
Still for that read-out and setting: under `O=C1C=C(O)c2[nH]c(=O)ccc2C1=O` stands active: 25.1 µM.
On the same count and under the same terms, to `Nc1ccc2nc3c(=O)n(CCc4ccccc4)c(=O)[nH]c3nc2c1` belongs active: 15.8 µM.
